About 75 (2%) of roughly 3,200 compounds showed an effect of 50% or more. Some of the results follow.
System: T1, S. aureus MSSA476
T1 construct: MSSA476
Set-up: species or system S. aureus MSSA476 (TSB) or V. cholerae SAD30 (LB); 384-well bacterial growth screen at 25 uM, OD600 relative to DMSO control
Conditions: relative growth, OD600, TSB; 25 µM; inhibitor

Row | SMILES | % of control remaining
1 | C=CC(=O)NC1(c2nc(C3CC3)cc(=O)[nH]2)CCCCC1 [3-H13, N-[1-(4-cyclopropyl-6-oxo-1,6-dihydropyrimidin-2-yl)cyclohexyl]prop-2-enamide] | 104.484%
2 | C=CC(=O)N(Cc1cccc2cccnc12)C1CCCN(CC)C1 (stereo not drawn) [1-H11, N-(1-ethylpiperidin-3-yl)-N-[(quinolin-8-yl)methyl]prop-2-enamide] | 97.7582%
3 | Cl.O=C(CCl)NC1CCN(Cc2ccccc2)C1 (stereo not drawn) [6-G18, N-(1-benzylpyrrolidin-3-yl)-2-chloroacetamide hydrochloride] | 104.146%
4 | CCN(Cc1cccc(C)c1)C(=O)CCl [5-J16, 2-chloro-N-ethyl-N-[(3-methylphenyl)methyl]acetamide] | 78.6885%
5 | C#CCN1C(=O)C=CC1=O [10-F09, 1-(prop-2-yn-1-yl)-2,5-dihydro-1H-pyrrole-2,5-dione] | 118.438%
6 | CCN1C(=O)C(=Cc2ccc(-c3ccc(F)cc3)o2)C(C)=C(C#N)C1=O [9-P09, 1-ethyl-5-{[5-(4-fluorophenyl)furan-2-yl]methylidene}-4-methyl-2,6-dioxo-1,2,5,6-tetrahydropyridine-3-carbonitrile] | 83.5955%
7 | C=CC(=O)N1CCC(C(=O)N2CCCC(CC(N)=O)CC2)CC1 (stereo not drawn) [2-F12, 2-{1-[1-(prop-2-enoyl)piperidine-4-carbonyl]azepan-4-yl}acetamide] | 129.852%
8 | C=CC(=O)NC1CC2(CCC(C(=O)O)CC2)C1 (stereo not drawn) [2-I16, 2-(prop-2-enamido)spiro[3.5]nonane-7-carboxylic acid] | 113.838%
9 | COc1cc(C=C(C#N)C(=O)NC2CCCCC2C)cc(OC)c1O (stereo not drawn) [9-H21, 2-cyano-3-(4-hydroxy-3,5-dimethoxyphenyl)-N-(2-methylcyclohexyl)prop-2-enamide] | 104.27%
10 | N#CC(=Cc1cc(F)ccc1F)C(=O)Nc1ccc(F)cc1F [8-C10, 2-cyano-N-(2,4-difluorophenyl)-3-(2,5-difluorophenyl)prop-2-enamide] | 122.49%
11 | C=CC(=O)NCc1ccc(C(=O)N2CCN(c3nc(C)n[nH]3)CC2)cc1 [2-F22, N-({4-[4-(3-methyl-1H-1,2,4-triazol-5-yl)piperazine-1-carbonyl]phenyl}methyl)prop-2-enamide] | 99.2167%
12 | CC(Cl)C(=O)NCCc1ccc(F)cc1 (stereo not drawn) [6-F06, 2-chloro-N-[2-(4-fluorophenyl)ethyl]propanamide] | 98.6829%
13 | COc1ccc(C=C(C#N)C(=O)NCc2ccccc2)cc1O [8-C09, N-benzyl-2-cyano-3-(3-hydroxy-4-methoxyphenyl)prop-2-enamide] | 107.552%
14 | C=CC(=O)NCCC(=O)N1CCSC(C)CC1 (stereo not drawn) [2-K08, N-[3-(7-methyl-1,4-thiazepan-4-yl)-3-oxopropyl]prop-2-enamide] | 90.8616%
15 | C=C(Cl)CN(C(=O)CCl)C1CCc2ccccc21 (stereo not drawn) [7-B18, 2-chloro-N-(2-chloroprop-2-en-1-yl)-N-(2,3-dihydro-1H-inden-1-yl)acetamide] | 98.5871%
16 | COc1ccc(NC(=O)C(C#N)=Cc2cccc(O)c2)cc1OC [8-F09, 2-cyano-N-(3,4-dimethoxyphenyl)-3-(3-hydroxyphenyl)prop-2-enamide] | 113.527%
17 | C=CC(=O)N1CCc2[nH]cnc2C1c1ccnn1C (stereo not drawn) [3-A07, 1-[4-(1-methyl-1H-pyrazol-5-yl)-1H,4H,5H,6H,7H-imidazo[4,5-c]pyridin-5-yl]prop-2-en-1-one] | 86.7218%
18 | N#CC(=Cc1ccc(Cl)c([N+](=O)[O-])c1)C(=O)NCc1ccco1 [9-E15, 3-(4-chloro-3-nitrophenyl)-2-cyano-N-[(furan-2-yl)methyl]prop-2-enamide] | 82.6966%
19 | C=CC(=O)Nc1cn(C)nc1OC(C)C [1-F14, N-[1-methyl-3-(propan-2-yloxy)-1H-pyrazol-4-yl]prop-2-enamide] | 84.7473%
20 | Cc1cc(C(=O)CCl)c(C)n1-c1ccc(S(N)(=O)=O)cc1 [10-N14, 4-[3-(2-chloroacetyl)-2,5-dimethyl-1H-pyrrol-1-yl]benzene-1-sulfonamide] | 121.875%
21 | C=CC(=O)NC(Cc1ccccc1)c1ncco1 (stereo not drawn) [1-B07, N-[1-(1,3-oxazol-2-yl)-2-phenylethyl]prop-2-enamide] | 101.978%
22 | CC(Cl)C(=O)Nc1ccc([N+](=O)[O-])cc1Cl (stereo not drawn) [4-J17, 2-chloro-N-(2-chloro-4-nitrophenyl)propanamide] | 105.955%
23 | N#Cc1ccc(C(=O)CCl)cc1 [10-F10, 4-(2-chloroacetyl)benzonitrile] | 52.5%

Row | SMILES | % of control remaining
24 | CC(Cl)C(=O)NC(C)C(c1ccccc1Cl)n1cccn1 (stereo not drawn) [6-P09, 2-chloro-N-[1-(2-chlorophenyl)-1-(1H-pyrazol-1-yl)propan-2-yl]propanamide] | 77.1707%
25 | CC(Cl)C(=O)c1ccc(F)c(F)c1 (stereo not drawn) [10-A17, 2-chloro-1-(3,4-difluorophenyl)propan-1-one] | 134.688%
26 | COc1ccc(NC(=O)N2CCSSCC2)cc1 [10-H21, N-(4-methoxyphenyl)-1,2,5-dithiazepane-5-carboxamide] | 101.563%
27 | O=C(CCl)Nc1ccc(C(F)(F)F)cc1[N+](=O)[O-] [4-N08, 2-chloro-N-[2-nitro-4-(trifluoromethyl)phenyl]acetamide] | 142.163%
28 | O=C(CCl)NC1Cc2ccccc2N(C(=O)C(F)(F)F)C1 (stereo not drawn) [7-L16, 2-chloro-N-[1-(2,2,2-trifluoroacetyl)-1,2,3,4-tetrahydroquinolin-3-yl]acetamide] | 85.7143%
29 | Cc1cc(C(=O)CCl)c(C)c(C)c1C [10-I06, 2-chloro-1-(2,3,4,5-tetramethylphenyl)ethan-1-one] | 130.313%
30 | Cc1ccc(CC(=O)CCl)cc1 [10-O13, 1-chloro-3-(4-methylphenyl)propan-2-one] | 111.563%
31 | C=CC(=O)NCc1cc2cc(C)ccc2o1 [3-L14, N-[(5-methyl-1-benzofuran-2-yl)methyl]prop-2-enamide] | 102.743%
32 | CC(Cl)C(=O)NCc1cc(C(F)F)nn1C (stereo not drawn) [6-H14, 2-chloro-N-{[3-(difluoromethyl)-1-methyl-1H-pyrazol-5-yl]methyl}propanamide] | 97.6585%
33 | C=CC(=O)N1CCC(C(=O)NC2(CO)CCSCC2)CC1 [3-H07, N-[4-(hydroxymethyl)thian-4-yl]-1-(prop-2-enoyl)piperidine-4-carboxamide] | 98.5633%
34 | C=CC(=O)N1CCOCC2(COCCN2C)C1 (stereo not drawn) [3-J14, 1-{1-methyl-4,8-dioxa-1,11-diazaspiro[5.6]dodecan-11-yl}prop-2-en-1-one] | 109.012%
35 | O=C(CCl)N1N=C(c2cccs2)CC1c1ccc(F)cc1 (stereo not drawn) [4-O20, 2-chloro-1-[5-(4-fluorophenyl)-3-(thiophen-2-yl)-4,5-dihydro-1H-pyrazol-1-yl]ethan-1-one] | 137.589%
36 | COc1ccccc1N=Nc1ccc(NC(=O)CCl)cc1C [6-J06, 2-chloro-N-{4-[2-(2-methoxyphenyl)diazen-1-yl]-3-methylphenyl}acetamide] | 112.341%
37 | C=CC(=O)Nc1ncc(C2CCCC(C)C2)s1 (stereo not drawn) [1-J16, N-[5-(3-methylcyclohexyl)-1,3-thiazol-2-yl]prop-2-enamide] | 146.286%
38 | COCc1nc(C2CCCCCN2C(=O)CCl)no1 (stereo not drawn) [5-B07, 2-chloro-1-{2-[5-(methoxymethyl)-1,2,4-oxadiazol-3-yl]azepan-1-yl}ethan-1-one] | 111.84%
39 | Cc1ccc(N2C(=O)C=CC2=O)c(C)c1 [10-N07, 1-(2,4-dimethylphenyl)-2,5-dihydro-1H-pyrrole-2,5-dione] | 77.8125%
40 | CC(Cl)C(=O)N1CCCC(NS(=O)(=O)c2cccc(F)c2)C1 (stereo not drawn) [7-C13, N-[1-(2-chloropropanoyl)piperidin-3-yl]-3-fluorobenzene-1-sulfonamide] | 102.355%
41 | NC(=O)Nc1ccc(C(=O)CCl)cc1 [10-J07, [4-(2-chloroacetyl)phenyl]urea] | 55.625%
42 | C=CC(=O)N1CCC(C(=O)NOC2CCCC2)(c2ccccc2)CC1 [3-K06, N-(cyclopentyloxy)-4-phenyl-1-(prop-2-enoyl)piperidine-4-carboxamide] | 99.6082%
43 | C=CC(=O)N(C)Cc1cncn1C [2-D09, N-methyl-N-[(1-methyl-1H-imidazol-5-yl)methyl]prop-2-enamide] | 106.527%
44 | CC(C)Cn1c(N)c(C(=O)CCl)c(=O)n(C)c1=O [10-M12, 6-amino-5-(2-chloroacetyl)-3-methyl-1-(2-methylpropyl)-1,2,3,4-tetrahydropyrimidine-2,4-dione] | 108.75%
45 | O=C(CCl)NCc1nn(-c2ccccc2)c2c1CCC2 [7-B06, 2-chloro-N-({1-phenyl-1H,4H,5H,6H-cyclopenta[c]pyrazol-3-yl}methyl)acetamide] | 77.551%

Reference: PMC11995724, “Antibiotic target discovery by integrated phenotypic and activity-based profiling of electrophilic fragments” (Cell chemical biology, 2025)
